Results: the supplement of paper PMC4967469

Experiments:
Assay in all cases: Viability of human cancer cell lines after 72 h of drug (GDSC screen)
Thapsigargin = compound: C/C=C(/C)C(=O)O[C@H]1C(C)=C2[C@H]([C@@H]1OC(=O)CCCCCCC)[C@@](C)(OC(C)=O)C[C@H](OC(=O)CCC)[C@@]1(O)[C@H]2OC(=O)[C@@]1(C)O [Thapsigargin]; conditions: top dose 0.512 µM; top dose inferred
Procedure: (§1)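 Human cancer cell lines in 384-well plates, medium with 10% serum, drug for 72 h over a 256-fold dose range (nine 2-fold or five 4-fold steps up to the top dose). Adherent lines were fixed and stained with the nucleic acid dye Syto60, suspension lines read with resazurin; signal relative to control wells, capped at 0 and 100%. One two-parameter sigmoid per drug and line, fitted in a mixed model over all curves with the slope shared within a line.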

QL-X-138 = compound: C=CC(=O)Nc1cc(-n2c(=O)ccc3cnc4ccc(-c5cn[nH]c5)cc4c32)ccc1C [QL-X-138]; conditions: top dose 10.24 µM; top dose inferred
Procedure: as §1

GSK269962A = compound: CCn1c(-c2nonc2N)nc2cnc(Oc3cccc(NC(=O)c4ccc(OCCN5CCOCC5)cc4)c3)cc21 [GSK269962A]; conditions: top dose inferred
Procedure: as §1

MPS-1-IN-1 = compound: COc1cc(N2CCC(O)CC2)ccc1Nc1cc(Nc2ccccc2S(=O)(=O)C(C)C)c2cc[nH]c2n1 [MPS-1-IN-1]; conditions: top dose 20 µM; top dose inferred
Procedure: as §1

(5Z)-7-Oxozeaenol = compound: COc1cc(O)c2c(c1)/C=C/C[C@H](O)[C@H](O)C(=O)/C=C\C[C@H](C)OC2=O [(5Z)-7-Oxozeaenol]; conditions: top dose 10 µM; top dose inferred
Procedure: as §1

CP466722 = compound: COc1cc2ncnc(-n3nc(-c4ccccn4)nc3N)c2cc1OC [CP466722]; conditions: top dose 16 µM; top dose inferred
Procedure: as §1

Zibotentan = compound: COc1nc(C)cnc1NS(=O)(=O)c1cccnc1-c1ccc(-c2nnco2)cc1 [Zibotentan]; conditions: top dose 20 µM; top dose inferred
Procedure: as §1

ABT-888 = compound: C[C@]1(c2nc3c(C(N)=O)cccc3[nH]2)CCCN1 [ABT-888]; conditions: top dose 5 µM; top dose inferred
Procedure: as §1

ABT-869 = compound: Cc1ccc(F)c(NC(=O)Nc2ccc(-c3cccc4[nH]nc(N)c34)cc2)c1 [ABT-869]; conditions: top dose 1.024 µM; top dose inferred
Procedure: as §1

CHIR-99021 = compound: Cc1cnc(-c2cnc(NCCNc3ccc(C#N)cn3)nc2-c2ccc(Cl)cc2Cl)[nH]1 [CHIR-99021]
Procedure: as §1

Cytarabine = compound: Nc1ccn([C@@H]2O[C@H](CO)[C@@H](O)[C@@H]2O)c(=O)n1 [Cytarabine]; conditions: top dose 2 µM
Procedure: as §1

KU-55933 = compound: O=c1cc(-c2cccc3c2Sc2ccccc2S3)oc(N2CCOCC2)c1 [KU-55933]; conditions: top dose 10 µM
Procedure: as §1

[1] = top dose 5 µM, screen: GDSC drug entry 1192
[2] = top dose 2.56 µM, screen: GDSC drug entry 154
[3] = top dose 10 µM, screen: GDSC drug entry 1241, top dose inferred
[4] = top dose 2.5 µM, screen: GDSC drug entry 127

Row | Cell Line | AUC (Thapsigargin) | IC50 (Thapsigargin) [nM] | AUC (QL-X-138) | IC50 (QL-X-138) [µM] | AUC (GSK269962A; [1]) | IC50 (GSK269962A; [1]) [µM] | AUC (MPS-1-IN-1) | IC50 (MPS-1-IN-1) [µM] | AUC ((5Z)-7-Oxozeaenol) | IC50 ((5Z)-7-Oxozeaenol) [µM] | AUC (CP466722) | IC50 (CP466722) [µM] | AUC (Zibotentan) | IC50 (Zibotentan) [µM] | AUC (ABT-888) | IC50 (ABT-888) [µM] | AUC (ABT-869) | IC50 (ABT-869) [nM] | AUC (CHIR-99021; [2]) | IC50 (CHIR-99021; [2]) [µM] | AUC (CHIR-99021; [3]) | IC50 (CHIR-99021; [3]) [µM] | AUC (Cytarabine) | IC50 (Cytarabine) [nM] | AUC (KU-55933) | IC50 (KU-55933) [µM] | AUC (GSK269962A; [4]) | IC50 (GSK269962A; [4]) [µM]
1 | NCI-H1048 (small cell lung carcinoma, adherent) | 0.464 | 25.8 | 0.656 | 1.65 | 0.973 | > 5 | 0.859 | 14 | 0.803 | 4.38 | 0.702 | 3.46 | 0.989 | > 20 | 0.989 | > 5 | 0.975 | > 1020 | 0.99 | > 2.56 | 0.979 | > 10 | 0.698 | 420 | 0.966 | > 10 |  | 
2 | NCI-H1435 (lung adenocarcinoma, semi-adherent) | 0.294 | 9.09 | 0.991 | > 10.2 | 0.992 | > 5 | 0.989 | > 20 | 0.963 | > 10 | 0.894 | 15.6 | 0.992 | > 20 | 0.981 | > 5 | 0.993 | > 1020 | 0.979 | > 2.56 | 0.991 | > 10 | 0.992 | > 2000 | 0.916 | > 10 |  | 
3 | NCI-H1568 (lung adenocarcinoma, adherent) | 0.251 | 5.06 | 0.979 | > 10.2 | 0.962 | > 5 | 0.944 | > 20 | 0.797 | 6.14 | 0.982 | > 16 | 0.982 | > 20 | 0.959 | > 5 | 0.967 | > 1020 | 0.981 | > 2.56 | 0.925 | > 10 | 0.838 | 1860 | 0.965 | > 10 |  | 
4 | NCI-H1623 (lung adenocarcinoma, adherent) | 0.777 | 255 | 0.933 | > 10.2 | 0.983 | > 5 | 0.917 | > 20 | 0.941 | > 10 | 0.973 | > 16 | 0.984 | > 20 | 0.981 | > 5 | 0.981 | > 1020 | 0.985 | > 2.56 | 0.971 | > 10 | 0.665 | 401 | 0.961 | > 10 |  | 
5 | NCI-H1651 (lung adenocarcinoma, adherent) | 0.485 | 29.1 | 0.986 | > 10.2 | 0.967 | > 5 | 0.987 | > 20 | 0.803 | 5.41 | 0.987 | > 16 | 0.987 | > 20 | 0.98 | > 5 | 0.984 | > 1020 | 0.983 | > 2.56 | 0.986 | > 10 | 0.906 | > 2000 | 0.978 | > 10 |  | 
6 | NCI-H1688 (small cell lung carcinoma, adherent) | 0.511 | 34.4 | 0.833 | 7.55 | 0.934 | > 5 | 0.937 | > 20 | 0.961 | > 10 | 0.918 | > 16 | 0.985 | > 20 | 0.987 | > 5 | 0.974 | > 1020 | 0.987 | > 2.56 | 0.982 | > 10 | 0.977 | > 2000 | 0.985 | > 10 |  | 
7 | NCI-H1693 (lung adenocarcinoma, adherent) | 0.824 | > 512 | 0.804 | 9.45 | 0.908 | > 5 | 0.97 | > 20 | 0.707 | 3.46 | 0.875 | > 16 | 0.966 | > 20 | 0.899 | > 5 | 0.973 | > 1020 | 0.969 | > 2.56 | 0.929 | > 10 | 0.872 | > 2000 | 0.947 | > 10 |  | 
8 | NCI-H1755 (lung adenocarcinoma, adherent) | 0.757 | 202 | 0.95 | > 10.2 | 0.733 | 1.63 | 0.899 | > 20 | 0.826 | 7.38 | 0.577 | 1.68 | 0.972 | > 20 | 0.966 | > 5 | 0.928 | > 1020 | 0.888 | > 2.56 | 0.798 | 5.64 | 0.771 | 890 | 0.951 | > 10 |  | 
9 | NCI-H1781 (lung adenocarcinoma, adherent) | 0.392 | 16.1 | 0.839 | 7.02 | 0.978 | > 5 | 0.989 | > 20 | 0.797 | 4.71 | 0.874 | 15.6 | 0.916 | > 20 | 0.989 | > 5 | 0.989 | > 1020 | 0.989 | > 2.56 | 0.968 | > 10 | 0.708 | 484 | 0.988 | > 10 |  | 
10 | NCI-H1792 (lung adenocarcinoma, adherent) | 0.173 | 3.76 | 0.922 | > 10.2 | 0.91 | > 5 | 0.952 | > 20 | 0.918 | > 10 | 0.978 | > 16 | 0.989 | > 20 | 0.989 | > 5 | 0.989 | > 1020 | 0.99 | > 2.56 | 0.796 | 4.15 | 0.853 | 1330 | 0.979 | > 10 |  | 
11 | NCI-H1944 (lung adenocarcinoma, adherent) | 0.353 | 12.2 | 0.755 | 3.68 | 0.919 | > 5 | 0.885 | > 20 | 0.899 | > 10 | 0.763 | 6.12 | 0.984 | > 20 | 0.985 | > 5 | 0.982 | > 1020 | 0.985 | > 2.56 | 0.982 | > 10 | 0.238 | 20.5 | 0.962 | > 10 |  | 
12 | NCI-H1993 (lung adenocarcinoma, adherent) | 0.913 | > 512 | 0.729 | 3.61 | 0.949 | > 5 | 0.948 | > 20 | 0.803 | 6.96 | 0.978 | > 16 | 0.974 | > 20 | 0.963 | > 5 | 0.981 | > 1020 | 0.982 | > 2.56 | 0.96 | > 10 | 0.975 | > 2000 | 0.974 | > 10 |  | 
13 | NCI-H2009 (lung adenocarcinoma, adherent) | 0.197 | 3.79 | 0.898 | > 10.2 | 0.885 | > 5 | 0.945 | > 20 | 0.727 | 2.89 | 0.956 | > 16 | 0.985 | > 20 | 0.974 | > 5 | 0.985 | > 1020 | 0.986 | > 2.56 | 0.975 | > 10 | 0.742 | 648 | 0.962 | > 10 |  | 
14 | NCI-H2087 (lung adenocarcinoma, semi-adherent) | 0.228 | 4.79 | 0.768 | 4.12 | 0.984 | > 5 | 0.927 | > 20 | 0.788 | 4.77 | 0.766 | 6.34 | 0.985 | > 20 | 0.985 | > 5 | 0.975 | > 1020 | 0.983 | > 2.56 | 0.974 | > 10 | 0.92 | > 2000 | 0.98 | > 10 |  | 
15 | NCI-H2110 (non-small cell lung carcinoma, adherent) | 0.336 | 11.1 | 0.648 | 1.66 | 0.962 | > 5 | 0.734 | 5.93 | 0.934 | > 10 | 0.851 | 12.7 | 0.98 | > 20 | 0.976 | > 5 | 0.985 | > 1020 | 0.986 | > 2.56 | 0.985 | > 10 | 0.646 | 320 | 0.928 | > 10 |  | 
16 | NCI-H2172 (non-small cell lung carcinoma, adherent) | 0.899 | > 512 | 0.926 | > 10.2 | 0.864 | > 5 | 0.944 | > 20 | 0.905 | > 10 | 0.924 | > 16 | 0.979 | > 20 | 0.981 | > 5 | 0.978 | > 1020 | 0.977 | > 2.56 | 0.92 | > 10 | 0.817 | 1670 | 0.972 | > 10 |  | 
17 | NCI-H2227 (small cell lung carcinoma, semi-adherent) | 0.84 | 419 | 0.714 | 2.82 | 0.946 | > 5 | 0.832 | 15.1 | 0.961 | > 10 | 0.711 | 4.3 | 0.984 | > 20 | 0.986 | > 5 | 0.971 | > 1020 | 0.985 | > 2.56 | 0.984 | > 10 | 0.929 | > 2000 | 0.985 | > 10 | 0.91 | > 2.5
18 | NCI-H2291 (lung adenocarcinoma, adherent) | 0.979 | > 512 | 0.975 | > 10.2 | 0.982 | > 5 | 0.984 | > 20 | 0.859 | > 10 | 0.98 | > 16 | 0.983 | > 20 | 0.982 | > 5 | 0.98 | > 1020 | 0.984 | > 2.56 | 0.92 | > 10 | 0.887 | > 2000 | 0.91 | > 10 |  | 

Lines with a small IC50 respond at low doses; where the fit passes the top or lowest dose, that dose stands as a limit. AUC sums up the same curve from the lowest dose to the 256-fold higher top dose; values near 1 show little effect. For some assays here: An inferred top dose was calculated from the reported fits. For some assays here: An entry number marks a drug with two screens in the source, which often give different values.
